Measured values taken from patent US12291562B2, “Reagents and assays using modified integrin domains” (Rush University Medical Center, priority 2019, dated 2025).

Key:
[1] = tested on: CD11b A-domain polypeptides; assay: Conformation selectivity in counterscreen and dilution series ELISA; type: binding, human; details: conclusion from ELISA data
Procedure: (§1) After 2 rounds of enrichment against the primary target, positive binders were identified by phage ELISA and analyzed by restriction mapping & sequencing for identification of unique clones. Small scale phage growths were diluted 1:5 in TBS+casein. Nunc Maxi-Sorp strip wells were coated at ˜5 μg/ml of each test protein overnight at 4° C. and blocked with TBS+casein. The diluted phage were applied and allowed to bind for 1 hour with shaking. The wells were washed 4 times with TBS+0.05% Tween20 and twice with TBS. Bound phage were detected by incubation for 1 hour with anti-M13-HRP and after washing as above, developed with TMB. Absorbance at 450 nm was read after acidification of the wells.
High binding clones were included in a counterscreen ELISA against other CD11b A-domain polypetides which produced the following data:
To confirm binding, a dilution series experiment was carried out. Select clones were subjected to a dilution series which generated the following data: […]

[2] = Phage ELISA on blocked well; type: binding; details: Table 5, scFv phage diluted 1:5
Procedure: as §1

B1: Clone 2: scFv phage clone, VL-Linker-VH, SEQ ID NO: 61 (protein)
scFv: SSELTQDPAVSVALGQTVRITCQGDSLRSYYASWYQQKPGQAPVLVIYGKNNRPSGIPDRFSGSSSGNTASLTITGAQAEDEADYYCNSRDSSGNHLVFGGGTKLTVLGEGKSSGSGSESKAS[about 100 residues not listed]YMVRGGGIDYWGQGTLVTVSS
modifications: Clone 2
[1]
  Selectivity of binding to CD11b A-domain polypeptides mutationally stabilized in active conformation over the other conformations: limited or no selectivity
[2]
  ELISA absorbance at 450 nM, Blocked well: 0.049
